The record followed here is PubChem BioAssay (NCI).

Where “and” joins values, the source holds several entries; their conditions need not be identical. Identical values can stand only once.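 Results reflect a 48-hour exposure of cells in 96-well plates to compound at five concentrations. At the GI50, growth is halved. Definition used: TGI = concentration required for complete inhibition of growth.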 A value given as a limit tells only on which side of the number the result lay.

The experiment has as its system NCI-H322M lung. Put plainly: DTP human tumour cell line panel, 48 h.
The TGI is the concentration giving total growth inhibition. High values mean less potent growth arrest, low ones more potent growth arrest. The compound `Clc1ccc(CNc2nc3ccccc3nc2-c2cccs2)c(Cl)c1` had a TGI greater than 100 µM.

As to `CCOC(=O)c1[nH]c2nc(SC)nc(NC)c2c1N`, the TGI is greater than 100 µM.

`CCOC(=O)C1=C(C)NC(=O)N([N+](=O)[O-])C1c1ccccc1C(F)(F)F` (stereo unspecified) returned a TGI greater than 100 µM.

What is called GI50 is the concentration that inhibits growth by half. In the case of `O=C1c2c(c3c4ccc(Br)cc4oc3c3[nH]c4ccccc4c23)C(=O)N1O`, the GI50 is 2.88 µM and the TGI is greater than 100 µM.

`COc1cc(/C=C/C(=O)O)ccc1OS(=O)(=O)O` displayed a concentration for total growth inhibition (TGI) greater than 100 µM.

In turn, `CC(C)(C)c1nc2c(o1)C(=Nc1ccc(F)cc1)c1ccccc1C2=O` gave a TGI of 42.2 µM.

Take `c1cc[c]([Sn]([S]c2cccc3cccnc23)([c]2ccccc2)[c]2ccccc2)cc1`: the 50% growth inhibitory concentration (GI50) is 0.0487 µM and the TGI was 0.173 µM.

`COc1ccc(CCCCl)c(C2=NCCc3ccccc32)c1`: the total growth inhibition concentration (TGI) is greater than 100 µM.

With `Cc1ncc(NC(=O)c2ccc(CN3CCN(C)CC3)c(C(F)(F)F)c2)cc1Nc1nccc(-c2cccnc2)n1`, the GI50 was 17.3 µM and the concentration for total growth inhibition (TGI) is 31.1 µM.

Regarding `CC(=O)n1c(-c2ccc(Cl)cc2)nc2c(c1=O)C(c1ccc(Cl)cc1)c1sc3c(Cl)cccc3c1O2` (stereo unspecified), the GI50 is 1.03 µM and the concentration for total growth inhibition (TGI) was determined as 3.44 µM.

`COC(=O)C(=O)C(C(=O)C(=O)Nc1cc([N+](=O)[O-])ccc1C#N)c1nc2ccccc2[nH]c1=O` (stereo unspecified) yielded a concentration for total growth inhibition (TGI) greater than 100 µM.

`CCCNCc1cc(C)cc2c1nc(N1CCNCC1)n2Cc1cc(C)c(F)c(C)c1`: the GI50 is 5.88 µM and the total growth inhibition concentration (TGI) was determined as 18.9 µM.

In the case of `CC1=Nc2c(ccc3c2C(=O)c2ccccc2C3=O)NC(c2ccncc2)C1` (stereo unspecified), the total growth inhibition concentration (TGI) is greater than 100 µM.

Regarding `COC(=O)/C(=N\NC(=S)NN)C(C(=O)C(=O)Nc1ccccc1C(N)=O)c1nc2ccccc2[nH]c1=O` (stereo unspecified), the TGI is greater than 100 µM.

`c1ccc([P+](Cc2csnn2)(c2ccccc2)c2ccccc2)cc1` yielded a TGI greater than 100 µM.

With `C=CCOc1c(Br)cc(Br)cc1Br`, the GI50 was 12.3 µM and the TGI turned out to be 94.2 µM.

Regarding `CCOP(=O)(OCC)c1cc(-c2ccccc2)ccc1N`, the concentration for total growth inhibition (TGI) is greater than 100 µM.

`CC(C)(C)C1(O)Cc2ccccc2C(=O)O1` (stereo unspecified) gave a total growth inhibition concentration (TGI) greater than 100 µM.

Compound `CCOC(=O)c1ccc(C(=O)/C(C(=O)OC(C)(C)C)=C2\CCCN2C)n1C` yielded a concentration for total growth inhibition (TGI) greater than 100 µM.

`O=C(CN=C(CN(c1ccccc1)c1ccccc1)Oc1c(Cl)cc(Cl)cc1Cl)n1cnc2ccccc21` came in with a concentration for total growth inhibition (TGI) greater than 100 µM.

`CCOC(=O)c1c(NC(=S)Nc2ccc(C)cc2)sc2c1CCN(C)C2` had a total growth inhibition concentration (TGI) greater than 100 µM.

In turn, `OCC1OC(O[C@H]2CN3[C@H](O)[C@@H](O)[C@H](O)[C@H]3C2O)C(O)C(O)C1O` (stereo partly specified) returned a total growth inhibition concentration (TGI) greater than 100 µM.

Regarding `C=C(COC(C)=O)CC(/C=C(\C)CCC=C(C)C)OC(C)=O` (stereo unspecified), the total growth inhibition concentration (TGI) is greater than 100 µM.

On to `COc1ccc(C2C(N)=NCC2c2ccccn2)cc1` (stereo unspecified), for which the concentration for total growth inhibition (TGI) was greater than 100 µM.

For the compound `C=CC(=O)Nc1cccc(Nc2nc(Nc3ccc(OCCOC)cc3)ncc2F)c1`, the GI50 is 0.911 µM and the TGI amounted to 11.1 µM.

`COc1ccc(/C=C/C(=O)c2sc(-n3nc(-c4ccccc4)cc3-c3ccccc3)nc2C)cc1OC`: the TGI is greater than 100 µM.

For the compound `CCc1cc(=O)n(/C(C)=C/c2ccccc2)n1C`, the TGI is greater than 100 µM.

Take `FC(F)(F)c1ccc2c(Nc3cccc(C4CC(c5ccccc5)=NN4c4ccc(Cl)cc4)c3)ccnc2c1` (stereo unspecified): the GI50 was 16.6 µM and the total growth inhibition concentration (TGI) is 87.3 µM.

Take `COC(=O)NC/C=C\c1nc(CC/C=C\C(=O)OC2CC3CC(=O)O[C@@H](/C=C/CC(C)C)C[C@@H]4CCC(C)C(C[C@@H](OC)CC(C2)O3)O4)co1` (stereo partly specified): the GI50 is 15.8 µM and the concentration for total growth inhibition (TGI) is greater than 100 µM.

On to `O=S1(=O)c2ccccc2NC(=S)N1c1ccccc1`, for which the concentration for total growth inhibition (TGI) was greater than 100 µM.

With `COc1cc(/C=C\c2ccc(O)cc2)cc(OC)c1OC`, the total growth inhibition concentration (TGI) was greater than 100 µM.

`Cc1ccc(C(=O)c2[nH]c(Nc3cc(C)ccn3)c(C(=S)Nc3ccccc3)c2N)cc1` registered a TGI greater than 100 µM.

Turning to `NC(=S)N=Nc1c(O)cc(Nc2ccc(Cl)cc2Cl)c2ccccc12`, the TGI is greater than 100 µM.

Consider `CN1CCN(Cc2ccc(NC(=O)c3ccc(C(C)(C)C)c(C#Cc4cnc5cccnn45)c3)cc2C(F)(F)F)CC1`, for which the GI50 is 4.63 µM and the TGI worked out at 17.9 µM.

Turning to `CC(C)(C)OC(=O)c1ccc(NCc2cc(O)ccc2O)cc1`, the TGI is greater than 89.6 µM.

For the compound `CCC1C(=O)OCc2c1cc1n(c2=O)CCC12OCCO2` (stereo unspecified), the TGI was greater than 100 µM.

Compound `C=C1CC=CC(C)(C)C1C/C=C(\C)C(O)CBr` (stereo unspecified) returned a TGI greater than 100 µM.

In the case of `COC1OC2COC(C)(C)OC2C2OC(C)(C)OC12` (stereo unspecified), the total growth inhibition concentration (TGI) is greater than 100 µM.

Take `CC1(C)[C@@H]2C[C@H]1c1cnc(-c3ccccn3)cc1[C@H]2C(O)[C@@H]1c2cc(-c3ccccn3)ncc2[C@H]2C[C@@H]1C2(C)C` (stereo partly specified): the total growth inhibition concentration (TGI) stood at 18.6 µM.

Compound `Cc1cn(C2CC(OC(c3ccccc3)(c3ccccc3)c3ccccc3)C(COC(c3ccccc3)(c3ccccc3)c3ccccc3)O2)c(=O)[nH]c1=O` (stereo unspecified) came in with a total growth inhibition concentration (TGI) greater than 100 µM.

Take `COP(=O)(CC(=O)C1OC(OCc2ccccc2)C(OCc2ccccc2)C(OCc2ccccc2)C1OCc1ccccc1)OC` (stereo unspecified): the TGI was greater than 100 µM.

Regarding `CC(=O)OCCOCBr`, the concentration for total growth inhibition (TGI) is greater than 100 µM.

In turn, `COC(=O)[C@H]1C=C[C@H](OC2OC(COC(C)=O)C(OC(C)=O)C(OC(C)=O)C2OC(C)=O)n2c(=O)n(-c3ccccc3)c(=O)n21` (stereo partly specified) returned a TGI of 32.4 µM.

`Clc1ccc(OCc2nnc3n2N=C(c2ccc(Cl)cc2Cl)CS3)c(Cl)c1`: the GI50 was 27.5 µM and the TGI is greater than 100 µM.

In the case of `COC(=O)c1sc2ncc3c(c2c1N)CC(C)CC3` (stereo unspecified), the total growth inhibition concentration (TGI) was greater than 100 µM.

The compound `O=C1CCn2c([nH]c3cccc4cccc2c43)=N1` showed a TGI greater than 100 µM.

`Clc1cccc(C2ON=C(c3ccccc3)N2C23CC4CC(CC(C4)C2)C3)c1Cl` (stereo unspecified) displayed a TGI greater than 10 µM.

With `O=C(Nc1cc(-c2ccccc2)[nH]n1)c1ccc(Cl)cc1`, the GI50 is 6 µM and the TGI was greater than 100 µM.

As for `COc1cc(/C=C2\CC3C4CC=C5CC(N6CCCC6)CC[C@]5(C)C4CC[C@]3(C)C2OC(C)=O)ccc1OCCN1CCCC1` (stereo partly specified), the GI50 is 7.63 µM and the TGI was 20.4 µM.

In turn, `COC(=O)C1=C(C)N2[C@H](C(=O)O)CS[C@@]2(C)[C@H](C(=O)OC)[C@H]1c1cccc([N+](=O)[O-])c1` showed a TGI greater than 100 µM.

Consider `NC(N)=N/N=C/c1c(-c2ccccn2)nc2sc(Cl)cn12`, for which the GI50 was 5.72 µM and the concentration for total growth inhibition (TGI) was 11.9 µM.

With `Cc1sc(C)c(-c2ccc(CO)o2)c1-c1ccc(CO)o1`, the GI50 is 50.5 µM and the TGI is greater than 100 µM.

Turning to `CN(C)CCNC(=O)Nc1c(C#N)[n+]([O-])c2cc(Cl)c(Cl)cc2[n+]1[O-]`, the GI50 is 31.9 µM and the concentration for total growth inhibition (TGI) was greater than 100 µM.

Compound `COC(=O)/C=C\S/C(=C(/c1ccccc1)n1ccc(C(=O)OC)n1)c1ccccc1` showed a TGI greater than 100 µM.

Consider `NNC(=O)c1cccc2c1Oc1ccccc1S2`, for which the total growth inhibition concentration (TGI) was greater than 100 µM.

On to `CNC(=O)c1cn(C[C@H](F)CCc2ccc(NC(=O)Cc3cc(OC4CC(F)(F)C4)cc(C)n3)nn2)nn1`, for which the concentration for 50% growth inhibition (GI50) is 0.167 µM and the TGI is greater than 100 µM.

Consider `CNC(=O)c1ccc(-c2cnc3ncc(Cc4ccc5ncccc5c4)n3n2)cc1F`, for which the GI50 is greater than 100 µM and the TGI was greater than 100 µM.

In turn, `O=c1oc2ccccc2c2nc3ccccc3cc12` returned a TGI greater than 100 µM.

For the compound `Cc1c(C(=O)NN)nnn1-c1ccnc2c(C(F)(F)F)cccc12`, the GI50 was greater than 100 µM and the total growth inhibition concentration (TGI) is greater than 100 µM.

As to `COC(=O)C1=C(C(=O)OC)C2(C)CCC(=O)C1O2` (stereo unspecified), the TGI was greater than 10 µM.

On to `Oc1ccc(Cc2ccccc2)c2cccnc12`, for which the GI50 is 2.45 µM and the TGI was greater than 100 µM.

As for `COc1cc2c3c(n(CCCN4CCC(N)CC4)c(=O)c2cc1OC)-c1cc2c(cc1C3=O)OCO2`, the GI50 was 0.847 µM and the TGI was found to be 3.27 µM.

With `CC/C=C\C/C=C\C1CC(=O)NCCCNCCCCN1` (stereo unspecified), the TGI was greater than 100 µM.

Consider `COC(=O)c1c(O)ccc2[nH]c(C)c(C#N)c12`, for which the GI50 was 35.7 µM and the TGI was 97.7 µM.

Compound `OC(c1ccco1)C(F)(F)c1nc2ccccc2o1` (stereo unspecified) came in with a TGI greater than 100 µM.

`Clc1cc(Cl)c2c(Cl)cc(Cl)c3c2c1N=S=N3` displayed a TGI greater than 100 µM.

`CCN(C(=O)N[C@H](C(=O)N[C@@H](C)C(=O)OC)C(C)C)c1ccccc1` registered a TGI greater than 100 µM.

`O=C(O)c1cc2ccccc2c(S(=O)(=O)O)c1O` had a total growth inhibition concentration (TGI) greater than 100 µM.

For the compound `COc1ccc(/C(C)=N/NC(=S)N(C)C)c(O)c1`, the total growth inhibition concentration (TGI) was greater than 100 µM.

`COC(=O)C(CCSC)NC(=O)CSc1nnc(COc2ccc(Cl)cc2)n1-c1ccccc1` (stereo unspecified): the total growth inhibition concentration (TGI) is 29.8 µM. This lies in the double-digit micromolar range.

With `CCOc1cccc2nc3cccc(C(=O)NCCN(C)C)c3nc12`, the concentration for total growth inhibition (TGI) came to 9.23 µM.

Take `CS(=O)(=O)Nc1ccc(-c2ccc3c(NC(=O)C4CC4)n[nH]c3c2)cc1`: the GI50 is greater than 21.4 µM and the TGI was greater than 25 µM.

For `Cc1cccc(NC(Nc2cccc(C)c2)=C(C(Cl)=C(Cl)Cl)[N+](=O)[O-])c1`, the concentration for total growth inhibition (TGI) is greater than 74.3 µM.

On to `COc1cc2c(cc1OCCCOc1cc3c(cc1OC)C(=O)N1CCC[C@H]1CN3)N=C[C@@H]1CCCN1C2=O`, for which the TGI worked out at 0.609 µM.

As to `CC(=O)O[C@H]1C(=O)[C@@]2(C)[C@H]([C@H](OC(=O)c3ccccc3)[C@]3([O-])C[C@H](OC(=O)[C@H]([O-])[C@@H](NC(=O)c4ccccc4)c4ccccc4)C(C)=C1C3(C)C)[C@]1(OC(C)=O)CO[C@@H]1C[C@@H]2[O-].[Fe+3]`, the GI50 is 0.161 µM and 0.331 µM; the total growth inhibition concentration (TGI) was 65 µM and > 100 µM.

Take `O=c1c(Cc2ccccc2)c(-c2ccccc2)[nH]n1C1=NCCN1`: the concentration for total growth inhibition (TGI) is greater than 100 µM.

`Nc1ccc(SC23CC4CC(CC(C4)C2)C3)cc1`: the TGI is greater than 100 µM.

For `COc1ccc2c(c1)C=CC(C#N)N2C(=O)c1ccccc1` (stereo unspecified), the GI50 is 0.821 µM and the TGI was greater than 100 µM.

In turn, `CCCC[C@@H]1CCN2C[C@@H](O)[C@@H](O)[C@H]2[C@@H]1O` came in with a concentration for total growth inhibition (TGI) greater than 100 µM.

Turning to `COc1cc(-c2c3c(cc4c2OCO4)[C@@H](Nc2ccc4c(c2)Cc2cc(N[C@@H]5c6cc7c(cc6C(c6cc(OC)c(O)c(OC)c6)[C@H]6C(=O)OC[C@H]56)OCO7)ccc2-4)[C@H]2COC(=O)[C@@H]2C3)cc(OC)c1O` (stereo partly specified), the TGI is greater than 100 µM.

As for `Cc1ncc([N+](=O)[O-])n1CCNC(=O)CCCCn1ccnc1[N+](=O)[O-]`, the concentration for total growth inhibition (TGI) is greater than 100 µM.
